Reference: PMC8329197, “Compounds targeting OSBPL7 increase ABCA1-dependent cholesterol efflux preserving kidney function in two models of kidney disease” (Nature Communications, 2021)

Experiments:
Col4a3 KO mice = test: Alport syndrome model: ACR, serum creatinine, BUN, body weight (also vs ramipril); settings: Col4A3 KO, age 8 weeks, Cpd G 100 mg/Kg/day 28 days
OSBPL7 = system: T1, OSBPL7; test: Competition with ^3H-Cpd K UV cross-linking to FLAG-tagged OSBPL7 in HEK293 cells (immunoprecipitation, autoradiography); format: binding, human; parameters: OSBPL7 Competition %: dose or concentration left out as unconfirmed; settings: average(SEM)
T1 construct: Plasmids expressing each as a full-length protein with a C-terminal FLAG tag were obtained; expressed in transfected cells; host or cells: HEK293
Protocol: Briefly, a plasmid expressing a candidate target of interest fused with a FLAG tag was transfected into HEK293 cells. After 24 h, tritiated compound K at a concentration capable of inducing ABCA1-mediated cholesterol efflux (1.0 μM) was added for 3 h, then the live cells were exposed to UV-light (ʎ = 336 nm) to query potential compound/target cross-linking in situ. Cell lysates were prepared, the expressed protein was then selectively immunoprecipitated using an anti-FLAG antibody coupled to sepharose beads, bound proteins were separated by SDS-PAGE, and two identical blots were prepared and probed by western blot and by autoradiography to detect protein expression and presence or absence of compound crosslinking, respectively. The flow chart of this screen is illustrated in Fig. 2. Figure 2d illustrates the ability of Cpd A and Cpd G to displace tritiated Cpd K from overexpressed and immunoprecipitated OSBPL7. Figure 3b illustrates the use of this assay to detect binding of tritiated Cpd K to overexpressed and immunoprecipitated variants of OSBPL7 containing point mutations in the predicted oxysterol binging pocket of OSBPL7. […]

human THP1 macrophages = test: apoAI-mediated (ABCA1) cholesterol efflux from cholesterol-loaded THP1 macrophages; format: cell-based; parameters: ABCA1 Efflux %: dose or concentration left out as unconfirmed
[1] = 5 µM, THP1 cells, single experiments

With `O=C(N[C@@H]1CCCC[C@H]1O)c1cnc(OCC(F)(F)F)c(-c2ccc(Cl)c(Cl)c2)c1` [Cpd G] the “ACR values (mg Albumin / mg Creatinine), Median” value (Col4a3 KO mice) was 4.895 mg Albumin / mg Creatinine, the “OSBPL7 Competition %” value (OSBPL7) was 78(6.1) % and the “ApoA1-mediated Cholesterol Efflux (Fold increase over vehicle control), mean” value (human THP1 macrophages; 5 µM, THP1 cells, mean of 3) was 1.952 fold. For the same molecule, the “ApoA1-mediated Cholesterol Efflux (%)” value (human THP1 macrophages; [1]) was 7.42% and 3.8% and 3.1%, the “ApoA1-mediated Cholesterol Efflux (Fold increase over vehicle control)” value (human THP1 macrophages; [1]) was 2.587 fold and 1.569 fold and 1.699 fold and the “ABCA1 Efflux %” value (human THP1 macrophages; average(SEM)) was 99(7.7) %.

Values joined by “and” are separate entries in the source; they are usually repeats but may differ in a detail not shown here. Equal entries are not always repeated.
